From the supplement of paper PMC12217912
This is one part of the list. Sequences were assembled here from the parent chain. Values near 0.05 are background.

B1: TEV protease; numbered along this chain (parent)
chain: MGESLFKGPRDYNPISSSICHLTNESDGHTTSLYGIGFGPFIITNKHLFRRNNGTLVVQSLHGVFKVKDTTTLQQHLVDGRDMIIIRMPKDFPPFPQKLKFREPQREERICLVTTNFQTKSMSSMVSDTSCTFPSGDGIFWKHWIQTKDGQCGSPLVSTRDGFIVGIHSASNFTNTNNYFTSVPKNFMELLTNQEAQQWVSGWRLNADSVLWGGHKVFMVKPEEPFQPVKEATQL

Variants of: B1
Assay: raw area under fraction-flipped curve 0-4 h after induction (AUC4h, not background-subtracted), DNA-recorder readout of cleavage of the substrate (dimensionless); higher = more cleavage of the substrate by the protease variant
Details: temperature: 34 °C; time window: 0-4 h after rhamnose induction
Method: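 In vivo DNA recorder in E. coli TOP10(DE3) ΔrhaA at 34 °C. Each TEVp single-site mutant (parent TEVp 0) is paired with a single-site variant of the 7-mer TEVs (canonical ENLYFQ|S). The substrate sits between flexible linkers in a Bxb1-sfGFP-TEVs-SsrA fusion, so cleavage stabilises Bxb1 and speeds flipping of a recombination array, read by NGS. The value is the raw area under the fraction-flipped curve over 0-4 h after rhamnose induction (AUC4h), with ≥20 reads per time point. It is not background-subtracted; inactive controls average about 0.047.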
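Further: Bxb1 expression induced with 0.2% (w/v) L-rhamnose at OD600 near 0.5, cultures sampled hourly, flipped fraction per protease–substrate barcode pair counted by paired-end Illumina sequencing.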

Row | Variant | area with substrate EALYFQS | area with substrate ECLYFQS | area with substrate EDLYFQS | area with substrate EGLYFQS | area with substrate EILYFQS | area with substrate ELLYFQS | area with substrate EMLYFQS | area with substrate EQLYFQS | area with substrate ERLYFQS | area with substrate ESLYFQS | area with substrate ETLYFQS | area with substrate EWLYFQS | area with substrate EYLYFQS | area with substrate EELYFQS | area with substrate EFLYFQS | area with substrate EKLYFQS | area with substrate EVLYFQS | area with substrate EHLYFQS | area with substrate EPLYFQS
1 | P104H | 0.0564 | 0.0429 | 0.0463 | 0.0408 | 0.042 | 0.053 | 0.0419 | 0.0367 | 0.0462 | 0.0256 | 0.0444 | 0.057 | 0.0658 | – | – | – | – | – | –
2 | S16K | 0.128 | 0.11 | 0.152 | – | 0.1 | – | 0.17 | 0.144 | 0.114 | 0.102 | – | 0.0852 | 0.119 | 0.153 | 0.0779 | 0.152 | 0.102 | – | –
3 | S32T | 0.112 | 0.098 | 0.145 | – | – | 0.0818 | – | 0.114 | 0.103 | 0.11 | – | 0.103 | 0.1 | 0.108 | 0.109 | 0.09 | 0.108 | 0.103 | 0.0904
4 | V64M | 0.136 | 0.1 | – | 0.0848 | 0.116 | 0.0888 | 0.106 | 0.124 | 0.111 | 0.0994 | 0.126 | – | 0.107 | – | – | – | 0.096 | 0.0946 | 0.122
5 | T115M | 0.0899 | 0.101 | 0.124 | – | 0.0838 | – | 0.107 | 0.113 | – | 0.101 | 0.107 | 0.102 | – | 0.112 | 0.133 | – | – | 0.0852 | 0.124
6 | W199G | 0.0348 | 0.101 | 0.078 | 0.0607 | 0.0625 | – | – | 0.064 | 0.0573 | 0.0621 | – | – | 0.0652 | – | – | – | 0.0676 | 0.0545 | 0.0511
7 | K68R | 0.103 | 0.0854 | 0.093 | – | 0.0876 | – | 0.101 | 0.133 | 0.0927 | – | 0.0921 | 0.115 | 0.0976 | 0.146 | – | 0.0839 | – | 0.0988 | –
8 | D208Y | 0.0848 | 0.0686 | 0.0809 | 0.0483 | 0.0595 | 0.062 | 0.0811 | 0.0855 | 0.0659 | – | 0.065 | 0.0607 | 0.0895 | 0.0504 | – | 0.0797 | 0.0517 | 0.0568 | 0.0323
9 | T23W | 0.116 | 0.108 | 0.104 | 0.0971 | 0.0776 | 0.0854 | 0.115 | 0.0993 | 0.0939 | 0.0955 | 0.109 | 0.0784 | 0.084 | 0.0958 | 0.0559 | 0.0941 | 0.0928 | 0.115 | 0.106
10 | A232L | 0.101 | 0.0924 | 0.0777 | – | 0.0812 | – | 0.11 | – | 0.084 | 0.0979 | – | – | 0.114 | 0.119 | – | 0.0787 | – | 0.0739 | –
11 | L156N | 0.0564 | 0.0573 | 0.0583 | 0.0781 | 0.044 | – | 0.0616 | 0.0648 | 0.0538 | 0.0534 | 0.0497 | 0.0496 | 0.0497 | 0.0498 | 0.0461 | 0.0392 | 0.0484 | 0.0646 | –
12 | S4L | 0.0626 | 0.071 | 0.0667 | 0.0815 | 0.0786 | 0.0668 | 0.097 | 0.0817 | 0.0752 | 0.0816 | 0.114 | 0.0779 | – | 0.0952 | 0.0793 | 0.0827 | 0.0626 | 0.0716 | 0.0796
